Data published in PMC10284923 (The ISME Journal, 2023).

Tested on: CC9605_PhnD1
Test: Second DSF screen of 60 individual P-sources

NC(=O)OP(=O)(O)O [carbamyl phosphate]
Increase in thermal stability (ΔTM): marked increase in the thermal stability

O=C(O)COP(=O)(O)O [phospho glycolic acid]
Increase in thermal stability (ΔTM): marked increase in the thermal stability
